# According to the supplement of paper PMC3334620:
# Whole data set: some 33,000 sequences, median “E-score (-0.5 to 0.5)” near -0.013, cut for the highest 2% near 0.3. The list shows a part of the results.
# Molecular target: T1, Msn1 (UniProt P22148)
# T1 sequence: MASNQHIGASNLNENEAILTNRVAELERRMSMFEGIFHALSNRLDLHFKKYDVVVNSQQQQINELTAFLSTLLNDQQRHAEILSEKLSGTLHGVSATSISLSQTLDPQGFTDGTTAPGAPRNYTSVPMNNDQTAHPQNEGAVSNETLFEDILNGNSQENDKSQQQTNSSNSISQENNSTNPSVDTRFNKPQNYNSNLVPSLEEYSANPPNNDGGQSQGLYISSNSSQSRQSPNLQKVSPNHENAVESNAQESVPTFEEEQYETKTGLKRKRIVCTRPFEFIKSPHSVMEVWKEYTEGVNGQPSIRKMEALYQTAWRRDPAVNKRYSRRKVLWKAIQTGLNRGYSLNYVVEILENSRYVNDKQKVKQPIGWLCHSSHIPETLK
# Experiment: PBM E-score (8-mer binding enrichment) (E-score (-0.5 to 0.5)); higher = stronger / more preferred TF binding; most listed sequences are background and not binding sites
# Conditions: protein concentration: 200 nM; construct: GST-full length
# In short: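 For each ungapped eight-base word taken together with its reverse complement, the Universal PBM Analysis Suite assigned an E-score. Binding data came from GST-tagged yeast transcription factors, applied at about 100-200 nM, on universal all-10-mer Agilent arrays made double-stranded by primer extension. Fluorescent anti-GST marked bound protein, and scans were normalised with masliner.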
row,Sequence,PBM E-score
1,CGAATAGC,0.0726
2,AAAATACA,0.097
3,GAAGGGCA,-0.146
4,CAGTCACC,-0.109
5,AGACAGGG,-0.0575
6,ACAACTTA,0.0165
7,ATAACAAA,0.164
8,ACCTTGTG,-0.0531
9,GTCCGTTA,0.21
10,AGCCTGTG,-0.221
11,GACTTTAA,0.198
12,CACTGCCG,0.0826
13,ATCTCTAC,-0.0664
14,CCCCCACG,-0.189
15,GTCATGCA,0.0643
16,ACATCGGA,0.123
17,CTTCCTGC,-0.287
18,CAGTGCTA,0.0231
19,AAATTAAG,0.0473
20,AGTTATTA,0.0736
21,CTATAACC,-0.0603
22,CCATGCGG,-0.273
23,GCACGAAC,0.188
24,AGAGCACG,-0.123
25,CCATCTAA,-0.0753

row,Sequence,PBM E-score
1,GGAATCAC,0.0517
2,AACAACTG,0.161
3,GATAAGGA,0.0875
4,GGAAATGA,0.172
5,AACACTAA,0.00264
6,CGCTAGCA,0.0276
7,AATCACGT,0.0215
8,ATGTCGGG,0.187
9,CAGATCGA,-0.0136
10,AGGCCGAG,0.068
11,TGGCTGAA,-0.155
12,AGGGGAAC,-0.295
13,ACTTTAGC,-0.0296
14,AAGATGCC,-0.229
15,CTCCAAAG,-0.0517
16,AGGTATGG,-0.26
17,CATAAACC,0.122
18,CCTACTCG,-0.163
19,ATGTTGGA,0.265
20,AAAAAACT,-0.00951
21,ATGTCTAC,0.313
22,GATACATC,-0.0118
23,GGTTTTCA,0.15
24,GCTTTCCA,-0.188
25,CGTCCTAA,0.245

row,Sequence,PBM E-score
1,ATAATGCC,0.0821
2,TACTCTGA,-0.0497
3,CATTTCCC,0.16
4,GCGTGCAC,-0.159
5,TTCTAAAA,0.173
6,GTTAAAAC,-0.0848
7,GACCTAGA,-0.0349
8,CGCGTTAC,0.0906
9,CATAACGG,-0.0245
10,CTAGACAC,0.0417
11,GTAGATTA,0.199
12,TGCAGGAA,0.0458
13,AAAAACCG,0.128
14,ATAGGCTA,0.0699
15,CCTAATTC,0.0894
16,TATCTGAA,0.0264
17,CTCGACCC,-0.385
18,AAGACGGA,0.0975
19,AATTTCGA,0.0679
20,ATAGGAGC,-0.0549
21,GAAGAGAA,-0.0958
22,GTTAACAA,0.124
23,AACAGTTC,0.17
24,CTCTTTGC,-0.247
25,CGGTGCAG,-0.187

row,Sequence,PBM E-score
1,GGACCCCA,-0.187
2,ACCTCTAC,-0.0781
3,CAACTTTC,-0.0177
4,GAGAGGTA,-0.259
5,AATACTTC,0.174
6,CGTAACCC,-0.118
7,CATTGTCC,0.456
8,ACATCGTC,0.0423
9,ACTCGACG,0.116
10,CCTCGGAC,0.238
11,GCCTCCGC,-0.182
12,GTCGCACA,0.0631
13,GCGCCAAA,-0.144
14,CCGATTAA,0.15
15,GCCGTCCC,-0.22
16,CATATGGG,-0.137
17,AGTAAACG,0.00772
18,CAAATCAC,-0.028
19,AGATGCCT,-0.0381
20,CGATGAAA,0.143
21,AGCAGGTC,0.0183
22,AGACTGCA,-0.174
23,ATCACTCG,-0.0696
24,CCAGGATC,-0.0775
25,GTTTTAGA,0.109

row,Sequence,PBM E-score
1,CCTAAAGG,-0.11
2,AGCTGCAG,-0.0954
3,CATCTGTC,0.0441
4,CCCAAATC,-0.12
5,CCAGTCCA,-0.369
6,AACAGGAA,0.123
7,ATGTTAGA,-0.043
8,CTATTATA,0.102
9,CCACTACC,-0.136
10,GGAGCGCC,-0.304
11,CCTCCGAC,-0.135
12,CTAACACA,0.097
13,CCCGAGCC,-0.196
14,GCTCCTTA,-0.0474
15,AACTACGA,-0.0234
16,TCGCCCCA,-0.122
17,AAGCACTA,-0.14
18,TATTGGCA,0.0554
19,CACTAGGA,-0.0355
20,ATGTAGAC,0.128
21,TAGGATGA,-0.0659
22,GTATTGTA,0.0984
23,ATAGTTAG,0.0668
24,AGCATGCA,-0.225
25,CACTAATA,0.0713

row,Sequence,PBM E-score
1,AGACACCT,0.0501
2,CTCAAGAG,-0.239
3,AGCTCTAA,0.0441
4,ATATTGTA,0.143
5,CCTTACCG,-0.062
6,CTGCGACA,0.238
7,GGGCTACC,-0.0707
8,CACACGGA,-0.0548
9,CAATGATC,0.0342
10,ATTGGACA,0.445
11,ATAGTACG,0.0327
12,CATCGATG,0.104
13,AAGCCAAG,-0.237
14,CCACGGGC,-0.2
15,AGATTAAC,-0.0305
16,ATACCAGG,0.12
17,AGTTTGAA,0.117
18,CTCTCAGC,-0.101
19,CCCGCTCG,-0.345
20,GTTTAAGA,-0.0581
21,ACGCAGAA,-0.00973
22,ACAATTGA,0.257
23,ACCGCAGC,-0.215
24,CAATAGGG,-0.166
25,ACCTAGCG,-0.101

row,Sequence,PBM E-score
1,ATAGCTGG,-0.0251
2,AGGGGCGG,-0.382
3,AAACCCAC,-0.0117
4,ACATTGTC,0.411
5,CGAGTCCC,-0.0566
6,AAGCCTGC,-0.0718
7,CACGTAAG,-0.117
8,CCGCTGTC,0.0815
9,AAATTTGC,0.0627
10,AAATACTA,0.0672
11,ATTGACAA,-0.0686
12,CCAGCAAA,0.06
13,TATACCGA,0.162
14,GTCTGGTA,0.046
15,GAGGACCC,-0.218
16,GATGAAGC,-0.0632
17,TCTACCCA,0.00996
18,GGCTCGAA,-0.124
19,CATGGGTA,0.0506
20,ATAATCAG,-0.134
21,CGTATGAC,0.0996
22,ACACGTTA,-0.0199
